# In the supplement of paper PMC4967469:
# The IC50 comes from the fitted curve, where viability falls to half of the control; a limit (>, <) means that the fit lies beyond the doses tested. For AUC the same curve is integrated over the 256-fold range of doses and scaled to a fraction: 1 means no effect, lower means more sensitive. For some assays here: Where the top dose is marked as inferred, it was calculated from the reported fits. For some assays here: Where an entry number is given, a second screen of the drug exists; the two often differ.
# How the values were obtained:
# Test in all cases: Viability of human cancer cell lines after 72 h of drug (GDSC screen)
# [1] = compound: O=C(Nc1cccc(Nc2ncc(Br)c(NCCc3cnc[nH]3)n2)c1)N1CCCC1 [BX-912]; details: top dose 10.24 µM; top dose inferred
# Protocol: (§1)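 Human cancer cell lines in 384-well plates, medium with 10% serum, drug for 72 h over a 256-fold dose range (nine 2-fold or five 4-fold steps up to the top dose). Adherent lines were fixed and stained with the nucleic acid dye Syto60, suspension lines read with resazurin; signal relative to control wells, capped at 0 and 100%. One two-parameter sigmoid per drug and line, fitted in a mixed model over all curves with the slope shared within a line.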
# [2] = compound: CN(NC(=O)CC(=O)NN(C)C(=S)c1ccccc1)C(=S)c1ccccc1 [Elesclomol]; details: top dose 0.2 µM; top dose inferred
# Protocol: as §1
# [3] = compound: O=C(Nc1ccc(OC(F)(F)F)cc1)c1sccc1NCc1ccnc2ccccc12 [OSI-930]; details: top dose 10.24 µM
# Protocol: as §1
# [4] = compound: Cc1ccc(NC(=O)c2ccc(CN3CCN(C)CC3)cc2)cc1Nc1nc(-c2cccnc2)cs1 [Masitinib]; details: top dose 20 µM
# Protocol: as §1
# [5] = compound: Cc1c(N)nc([C@H](CC(N)=O)NC[C@H](N)C(N)=O)nc1C(=O)N[C@H](C(=O)N[C@H](C)[C@@H](O)[C@H](C)C(=O)N[C@H](C(=O)NCCc1nc(-c2nc(C(=O)NCCC[S+](C)C)cs2)cs1)[C@@H](C)O)[C@@H](OC1OC(CO)C(O)C(O)C1OC1OC(CO)C(O)C(OC(N)=O)C1O)c1cnc[nH]1 [Bleomycin]
# Protocol: as §1
# [6] = compound: O=S(=O)(O)c1ccc2cc(N=Nc3cc(S(=O)(=O)O)c4cccnc4c3O)ccc2c1 [NSC-87877]; details: top dose 16 µM; top dose inferred
# Protocol: as §1
# [7] = compound: O=C(/C=C/c1ccc(CN(CCO)CCc2c[nH]c3ccccc23)cc1)NO [LAQ824]; details: top dose 1.024 µM; top dose inferred
# Protocol: as §1
# [8] = compound: CCCC(=O)OCc1ccc(OC(=O)/C=C(C)/C=C/C=C(C)/C=C/C2=C(C)CCCC2(C)C)cc1 [VNLG/124]; details: top dose 5.12 µM; top dose inferred
# Protocol: as §1
# [9] = top dose 50 µM, screen: GDSC drug entry 1378, top dose inferred
# [10] = top dose 64 µM, screen: GDSC drug entry 190
Cell Line,AUC [1],IC50 [1],AUC [2],IC50 [2],AUC [3],IC50 [3],AUC [4],IC50 [4],"AUC [5, 9]","IC50 [5, 9]","AUC [5, 10]","IC50 [5, 10]",AUC [6],IC50 [6],AUC [7],IC50 [7],AUC [8],IC50 [8]
"KOPN-8 (B-cell leukaemia, suspension)",0.374,0.304 µM,0.463,0.0101 µM,0.88,8.02 µM,0.714,4.54 µM,0.633,6.86 µM,0.388,2.07 µM,0.99,> 16 µM,0.332,0.0236 µM,0.971,> 5.12 µM
"LN-18 (glioma, adherent)",0.969,> 10.2 µM,0.58,0.0197 µM,0.99,> 10.2 µM,0.957,> 20 µM,0.135,0.316 µM,0.035,< 0.25 µM,0.966,> 16 µM,0.64,0.143 µM,0.993,> 5.12 µM
"LS-411N (large intestine, adherent)",0.876,> 10.2 µM,0.8,0.122 µM,0.951,> 10.2 µM,0.886,> 20 µM,0.746,18.9 µM,0.28,0.822 µM,0.982,> 16 µM,0.383,0.0283 µM,0.969,> 5.12 µM
"MCF7 (breast, adherent)",0.986,> 10.2 µM,0.561,0.0184 µM,0.92,> 10.2 µM,0.973,> 20 µM,0.654,8.48 µM,0.327,1.29 µM,0.977,> 16 µM,0.349,0.0239 µM,0.983,> 5.12 µM
"MDA-MB-361 (breast, adherent)",0.988,> 10.2 µM,0.532,0.0152 µM,0.967,> 10.2 µM,0.948,> 20 µM,0.962,> 50 µM,0.111,< 0.25 µM,0.959,> 16 µM,0.343,0.0235 µM,0.988,> 5.12 µM
"MDA-MB-436 (breast, adherent)",0.982,> 10.2 µM,0.482,0.0111 µM,0.947,> 10.2 µM,0.971,> 20 µM,0.645,8.8 µM,0.756,27.1 µM,0.984,> 16 µM,0.757,0.438 µM,0.981,> 5.12 µM
"MDA-MB-453 (breast, adherent)",0.853,9.45 µM,0.624,0.0285 µM,0.862,> 10.2 µM,0.864,> 20 µM,0.926,> 50 µM,0.661,11.8 µM,0.984,> 16 µM,0.458,0.0487 µM,0.986,> 5.12 µM
"MG-63 (osteosarcoma, adherent)",0.984,> 10.2 µM,0.946,> 0.2 µM,0.983,> 10.2 µM,0.984,> 20 µM,0.656,9.09 µM,0.355,1.48 µM,0.956,> 16 µM,0.443,0.0437 µM,0.981,> 5.12 µM
"MHH-NB-11 (neuroblastoma, adherent)",0.584,1.11 µM,0.686,0.0438 µM,0.972,> 10.2 µM,0.881,> 20 µM,,,0.411,2.23 µM,0.985,> 16 µM,0.851,0.91 µM,0.985,> 5.12 µM
"MIA-PaCa-2 (pancreas, adherent)",0.975,> 10.2 µM,0.365,0.0051 µM,0.952,> 10.2 µM,0.941,> 20 µM,0.157,0.239 µM,0.128,< 0.25 µM,0.973,> 16 µM,0.425,0.039 µM,0.978,> 5.12 µM
"ML-2 (acute myeloid leukaemia, suspension)",0.448,0.47 µM,0.988,> 0.2 µM,0.95,> 10.2 µM,0.857,13.4 µM,0.434,2.11 µM,0.139,0.357 µM,0.981,> 16 µM,0.43,0.0422 µM,0.85,3.23 µM
"MOLM-13 (acute myeloid leukaemia, suspension)",0.029,< 0.04 µM,0.983,> 0.2 µM,0.588,1.1 µM,0.656,3.29 µM,0.561,4.55 µM,0.692,13.3 µM,0.982,> 16 µM,0.307,0.0192 µM,0.684,1.01 µM
"MOLT-4 (lymphoblastic leukaemia, suspension)",0.429,0.425 µM,0.604,0.0228 µM,0.963,> 10.2 µM,0.874,13.4 µM,0.401,1.77 µM,0.284,1.13 µM,0.992,> 16 µM,0.287,0.0184 µM,0.943,> 5.12 µM
"MY-M12 (leukaemia, suspension)",0.489,0.596 µM,0.777,0.0911 µM,0.977,> 10.2 µM,0.858,19.9 µM,,,0.502,4.05 µM,0.978,> 16 µM,0.237,0.00984 µM,0.973,> 5.12 µM
"NCI-H23 (lung adenocarcinoma, adherent)",0.988,> 10.2 µM,0.488,0.0116 µM,0.958,> 10.2 µM,0.892,> 20 µM,0.108,< 0.195 µM,0.466,3.24 µM,0.986,> 16 µM,0.635,0.15 µM,0.987,> 5.12 µM
"NCI-H64 (small cell lung carcinoma, suspension)",0.952,> 10.2 µM,0.977,> 0.2 µM,0.992,> 10.2 µM,0.911,15.2 µM,,,0.162,0.564 µM,0.989,> 16 µM,0.334,0.0253 µM,0.995,> 5.12 µM
"NCI-H510A (small cell lung carcinoma, semi-adherent)",0.989,> 10.2 µM,0.798,0.0863 µM,0.968,> 10.2 µM,0.984,> 20 µM,,,0.327,1.38 µM,0.987,> 16 µM,0.35,0.0255 µM,0.982,> 5.12 µM
"NCI-H647 (non-small cell lung carcinoma, adherent)",0.794,4.98 µM,0.71,0.0505 µM,0.951,> 10.2 µM,0.79,9.36 µM,0.139,0.213 µM,0.497,3.92 µM,0.985,> 16 µM,0.62,0.139 µM,0.965,> 5.12 µM
"NCI-H1734 (lung adenocarcinoma, adherent)",0.905,> 10.2 µM,0.705,0.0506 µM,0.979,> 10.2 µM,0.916,> 20 µM,,,0.114,< 0.25 µM,0.985,> 16 µM,0.536,0.0813 µM,0.983,> 5.12 µM
"NCI-H2052 (mesothelioma, adherent)",0.944,> 10.2 µM,0.717,0.0622 µM,0.983,> 10.2 µM,0.915,> 20 µM,,,0.368,1.55 µM,0.971,> 16 µM,0.549,0.0904 µM,0.983,> 5.12 µM
"NCI-H3122 (lung adenocarcinoma, adherent)",0.97,> 10.2 µM,0.665,0.0366 µM,0.944,> 10.2 µM,0.926,> 20 µM,0.678,9.97 µM,0.36,1.63 µM,0.97,> 16 µM,0.424,0.0394 µM,0.986,> 5.12 µM
"OCUM-1 (stomach, adherent)",0.983,> 10.2 µM,0.705,0.0508 µM,0.974,> 10.2 µM,0.972,> 20 µM,0.678,10.5 µM,0.321,1.19 µM,0.987,> 16 µM,0.357,0.0246 µM,0.986,> 5.12 µM
"OVCAR-5 (ovary, adherent)",0.889,> 10.2 µM,0.237,0.00181 µM,0.98,> 10.2 µM,0.938,> 20 µM,0.301,0.764 µM,0.476,3.4 µM,0.959,> 16 µM,0.272,0.0124 µM,0.982,> 5.12 µM
"PA-1 (ovary, adherent)",0.539,0.796 µM,0.53,0.0148 µM,0.831,4.63 µM,0.897,15.3 µM,,,0.385,2.08 µM,0.992,> 16 µM,0.291,0.0192 µM,0.993,> 5.12 µM
"RCC10RGB (kidney, adherent)",0.972,> 10.2 µM,0.968,> 0.2 µM,0.965,> 10.2 µM,0.877,> 20 µM,0.768,42.1 µM,0.767,53.1 µM,0.96,> 16 µM,0.498,0.0628 µM,0.954,> 5.12 µM
"SAT (head and neck, adherent)",0.928,> 10.2 µM,0.849,> 0.2 µM,0.975,> 10.2 µM,0.975,> 20 µM,0.652,10.4 µM,0.864,> 64 µM,0.914,> 16 µM,0.574,0.114 µM,0.936,> 5.12 µM
"SF539 (glioma, adherent)",0.874,8.24 µM,0.61,0.0242 µM,0.986,> 10.2 µM,0.87,15.4 µM,0.309,0.968 µM,0.212,0.638 µM,0.988,> 16 µM,0.505,0.0658 µM,0.899,> 5.12 µM
"SK-OV-3 (ovary, adherent)",0.872,> 10.2 µM,0.427,0.00752 µM,0.94,> 10.2 µM,0.886,> 20 µM,0.626,7.6 µM,0.381,1.73 µM,0.981,> 16 µM,0.367,0.0249 µM,0.959,> 5.12 µM
"SUP-B15 (lymphoblastic leukaemia, suspension)",0.401,0.347 µM,0.927,> 0.2 µM,0.888,> 10.2 µM,0.466,1.01 µM,,,0.025,< 0.25 µM,0.985,> 16 µM,0.17,0.00676 µM,0.971,> 5.12 µM
